Source: US20100210558A1, “MINIGASTRIN AS A THERAPEUTIC AGENT” (priority 2007, published 2010)
Where no end group is shown, it is not given here.

System: HIV-1IIIB
Assay: HIV-1 antiviral assay (CPE reduction, MTS)
Type: cell-based
Details: peptide 10 micrograms per ml, 6 days post-infection

Row | Molecule | % CPE reduction in HIV-1 infected CEM-SS cells [%]
1 | Cc1cn([C@H]2C[C@H](N=[N+]=[N-])[C@@H](CO)O2)c(=O)[nH]c1=O [AZT, reference compound] | 99
2 | LEEEEEAYGWMDF-NH2 [Minigastrin I] | 0.0
